Data taken from paper PMC4336329 (PLoS ONE, 2015).
About 2,200 (0.71%) of roughly 310,000 compounds showed an effect of 50% or more. The effect is printed as a negative number. The list shows a part of the results.

Biological target: human ether-à-go-go-related gene (hERG) potassium channel (human, UniProt Q12809)
Assay: primary screen, population patch clamp on CHO cells stably expressing hERG

Sequence of human ether-à-go-go-related gene (hERG) potassium channel (Q12809 whole entry, looked up): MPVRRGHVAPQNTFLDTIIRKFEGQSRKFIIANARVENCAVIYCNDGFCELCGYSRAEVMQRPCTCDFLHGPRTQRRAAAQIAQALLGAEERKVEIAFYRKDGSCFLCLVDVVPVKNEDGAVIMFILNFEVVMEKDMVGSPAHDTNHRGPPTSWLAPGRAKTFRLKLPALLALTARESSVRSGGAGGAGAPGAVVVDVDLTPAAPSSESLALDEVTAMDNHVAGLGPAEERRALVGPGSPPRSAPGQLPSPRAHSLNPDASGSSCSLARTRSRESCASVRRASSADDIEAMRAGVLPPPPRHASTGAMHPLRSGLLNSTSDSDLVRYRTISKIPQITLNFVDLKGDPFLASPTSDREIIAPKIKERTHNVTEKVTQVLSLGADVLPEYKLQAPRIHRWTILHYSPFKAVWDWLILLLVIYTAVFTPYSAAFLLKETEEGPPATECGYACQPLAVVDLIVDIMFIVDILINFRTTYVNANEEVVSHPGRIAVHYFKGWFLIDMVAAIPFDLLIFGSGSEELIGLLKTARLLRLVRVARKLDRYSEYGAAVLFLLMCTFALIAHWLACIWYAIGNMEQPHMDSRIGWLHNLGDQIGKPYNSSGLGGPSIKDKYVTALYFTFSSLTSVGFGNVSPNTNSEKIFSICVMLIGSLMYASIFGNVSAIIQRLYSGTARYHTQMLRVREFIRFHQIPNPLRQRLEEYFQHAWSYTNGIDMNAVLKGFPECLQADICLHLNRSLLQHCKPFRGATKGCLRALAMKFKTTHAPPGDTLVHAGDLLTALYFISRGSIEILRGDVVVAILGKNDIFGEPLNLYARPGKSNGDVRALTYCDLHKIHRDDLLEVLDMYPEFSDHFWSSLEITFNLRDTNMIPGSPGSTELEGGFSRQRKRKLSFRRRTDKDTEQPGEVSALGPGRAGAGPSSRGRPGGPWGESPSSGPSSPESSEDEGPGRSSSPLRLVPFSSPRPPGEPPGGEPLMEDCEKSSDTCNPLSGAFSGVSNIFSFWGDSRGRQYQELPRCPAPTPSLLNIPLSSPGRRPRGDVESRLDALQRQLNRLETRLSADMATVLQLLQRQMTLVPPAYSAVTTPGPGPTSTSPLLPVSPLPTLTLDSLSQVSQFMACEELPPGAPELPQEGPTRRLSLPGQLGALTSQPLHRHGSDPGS

SMILES | hERG current change (%, negative = inhibition) at 1uM
COc1ccc(NC(=O)CN2C(=O)C(C)SC(C)C2=O)cc1 (stereo not drawn) | 6.14%
CCCCn1c(SCC(=O)Nc2nccs2)nc2ccccc2c1=O | 15.9%
COc1ccc(N2CCN(C(=O)Cn3c(=O)c4cccn4c4cccnc43)CC2)cc1 | -3.7%
COc1ccc2cc(C(=O)C3CCCN(C(=O)c4cnccn4)C3)ccc2c1 (stereo not drawn) | -0.88%
CCN(CC)S(=O)(=O)c1cc(NC(=O)COc2ccc(C#N)cc2OC)ccc1C | 5.63%
COc1ccc(C2=NN(CN3C(=O)C(=O)c4ccccc43)C(c3ccc(C)cc3)C2)cc1 (stereo not drawn) | 9.53%
Cc1ccc(Cn2c(NS(=O)(=O)c3ccccc3)nc3ccccc32)cc1 | 16.3%
Cc1cc(C)c(C(=O)Nc2ccc(C)c(C)c2)c(CC(C)(C)C(=O)O)c1 | 15.7%
CCOc1ccc(-c2nnc(NC(=O)CCCOc3cccc(C)c3)o2)cc1 | 12.5%
NC(=S)N/N=C/c1coc2c(ccc3ccccc32)c1=O | 13.4%
COc1ccc(CC(=O)NC(=S)Nc2ccc(S(N)(=O)=O)cc2)cc1 | -9.37%
CC(=O)Nc1cccc(NC(=O)CSc2nc(C3CC3)nc3ccccc23)c1 | 8.11%
O=C(c1cc2c(=O)n3ccccc3nc2s1)N1CCN(Cc2ccc3c(c2)OCO3)CC1 | -2.97%
CCOC(=O)c1ccc(N2C(=O)Cc3ccccc3C2=O)cc1 | 10.1%
COc1ccc(-n2c(SCC(=O)Nc3ccc(Br)cc3)nc(O)cc2=O)cc1 | 13.2%
O=C(N/N=C/c1ccccn1)C(=O)N1CCCCCC1 | 15.1%
CC(C)CN1CCN(Cc2cc3ccccc3[nH]2)CC1CCO (stereo not drawn) | 8.97%
O=c1c(-c2ccccc2)[n+]([O-])c2ccccc2n1O | -2.89%
COc1ccc(CCn2c(C)cc(C(=O)CSc3nnnn3-c3ccccc3)c2C)cc1 | 16.5%
O=C(N/N=C/c1cc(Br)c(O)c([N+](=O)[O-])c1)C(O)(c1ccccc1)c1ccccc1 | 6.95%
COC(=O)C1C(c2ccccc2)C(C(=O)N2CCN(C)CC2)C1c1ccccc1 (stereo not drawn) | 0.517%
CC1CCCCN1CC(=O)Nc1cc(S(=O)(=O)N2CCOCC2)ccc1N1CCCC1 (stereo not drawn) | 2.79%
CCOC(=O)c1oc2c(CN3CCN(C)CC3)c(O)ccc2c(=O)c1-c1ccc(Br)cc1 | 0.354%
O=C(O)CSc1ncnc2c1oc1ccccc12 | 12%
COC(=O)c1ccc(CSc2ccc3nnc(-c4ccc(OC)cc4)n3n2)o1 | 4.21%
Cc1ccc(C(=O)NNC(=O)CCCCC(=O)NNC(=O)c2ccc(C)cc2)cc1 | 9.03%
O=C(COC(=O)C12CC3CC(CC(O)(C3)C1)C2)Nc1ccc(Cl)cc1F | -1.56%

SMILES | hERG current change (%, negative = inhibition) at 1uM
COc1ccccc1CC(NC(C)=O)C(=O)NC1CCN(C(=O)c2ccc([N+](=O)[O-])cc2)CC1 (stereo not drawn) | 1.94%
CCOC(=O)c1ccc(N2C(=O)CC(N3CCC(C#N)(c4ccccc4)CC3)C2=O)cc1 (stereo not drawn) | 2.7%
Cc1nc(N2CCOCC2)c2c3c(sc2n1)CCC3 | 1%
O=C1NC2(CCCCCC2)C(=O)N1Cc1ccc(Br)cc1 | 11.5%
COc1cccc(C(=O)NCCNC(=O)c2ccc(C)nc2)c1 | 11.7%
O=S(=O)(c1cccc(-c2n[nH]c(=S)n2C2CCCC2)c1)N1CCOCC1 | 12.8%
COC(=O)Cc1[nH]n(-c2nc3ccccc3s2)c(=O)c1C(C)=Nc1ccc(Cl)cc1 | -2.71%
CCc1ccc(NC(=O)COn2nnc3ccc(S(=O)(=O)N(C)C)cc32)cc1 | 4.67%
CCOc1ccc(C(=S)N2CCOCC2)cc1OCC | -2.13%
CC(=O)NNC(=S)NC(=O)c1ccccc1 | 12.2%
COC(=O)c1cc(S(=O)(=O)NCc2cccs2)c[nH]1 | 16.2%
Cc1ccc(CN2CCN(CC(=O)N=Nc3c(O)[nH]c4ccccc34)CC2)cc1 | -75.3%
Cc1cc(Nc2cccc(F)c2)nc(NCc2ccccc2)n1 | 11.6%
O=C(N/N=C/c1ccccn1)c1cc(C2CC2)nc2ccccc12 | 12.5%
Cn1c(CN2CCCCC2)nc2cc(NS(=O)(=O)c3ccc(Cl)cc3)ccc21 | -9.75%
O=C(CN(C(=O)CSc1nc2ccccc2o1)c1cccc(F)c1)NC1CCCCC1 | 10.1%
CC(C)(C)c1ccc(C(=O)OCCNC(=O)c2c(Cl)nc3ccccn23)cc1 | 5.24%
CCN(Cc1ccccc1)C(=O)CN1C(=O)COc2ccc(S(=O)(=O)N3CCCCCC3)cc21 | 3.59%
CCCc1nc(SCc2cccnc2)c2c(=O)n(C)c(=O)n(C)c2n1 | -12.7%
CCCCC(=O)OCC(=O)c1cc(C)n(-c2c(C)n(C)n(-c3ccccc3)c2=O)c1C | 11.3%
CCOc1ccc2[nH]c(=O)c(CN(Cc3ccco3)C(=O)c3cccc(F)c3)cc2c1 | 8.97%
CCCOc1ccc(C(F)(F)F)cc1NC(=O)CCc1c(C)noc1C | -0.872%
CCN(CC(=O)Nc1ccc(OC)c(OC)c1)CC(=O)Nc1ccccc1C(F)(F)F | 5.5%
CCOc1ccc(N2CCc3c(C)nc(SC)nc32)cc1 | -4.4%
CCc1nn(CC(=O)NCCCN(Cc2ccccc2)C(C)C)c(=O)c2cc3sccc3n12 | -12.1%
COc1cc2cc(CN(CCO)S(=O)(=O)c3ccccc3)c(=O)[nH]c2cc1OC | 7.64%
CN(C)c1nc(OCc2ccccc2)c2ncc(=O)[nH]c2n1 | 7.36%
